# Structures can show the parent of a compound that is named as a salt. The list shows a part of the results. Most values come without repeats; read them as rough.
# Test system: HCT116-GFP
# Experiment: HCT116-GFP viability (GFP intensity) relative to untreated control, monoculture; higher = less cancer cell killing
# Details: culture: HCT116-GFP monoculture; 10 µM; 72 h
# 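Note: viability estimated indirectly by image-based GFP quantification with live-cell imaging of the constitutively GFP-expressing human colorectal cancer line, no immune cells added.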
row,SMILES,HCT116-GFP viability [%]
1,N#CC(c1ccc(Cl)cc1)c1c(Cl)cc(-n2ncc(=O)[nH]c2=O)cc1Cl (stereo not drawn) [Diclazuril],51.3
2,COc1cc(OC)c(C(=O)CCCN2CCCC2)c(OC)c1 [Buflomedil hydrochloride],86
3,COc1ccccc1N1CCN(CC(O)COc2cccc3ccccc23)CC1 (stereo not drawn) [Naftopidil dihydrochloride],68.9
4,CN1CCCC(CC2c3ccccc3Sc3ccccc32)C1 (stereo not drawn) [Metixene hydrochloride],65.1
5,CN1CCC(=C2c3ccccc3CC(=O)c3sccc32)CC1 [Ketotifen fumarate],75.1
6,CCN1C(=O)NC(c2ccccc2)C1=O (stereo not drawn) [Ethotoin],102
7,CCCN(CCC)C(=O)C(CCC(=O)O)NC(=O)c1ccccc1 (stereo not drawn) [Proglumide],100
8,COc1ccc2c(c1)N(C[C@H](C)CN(C)C)c1ccccc1S2 [Methotrimeprazine maleat salt],87.4
9,CC(C)(Sc1cc(C(C)(C)C)c(O)c(C(C)(C)C)c1)Sc1cc(C(C)(C)C)c(O)c(C(C)(C)C)c1 [Probucol],90.8
10,Cn1ccnc1S [Methimazole],97.1
11,Nc1c(Br)cc(Br)cc1CN[C@H]1CC[C@H](O)CC1 [Ambroxol hydrochloride],100
12,CN(C)CC/C=C1\c2ccccc2CSc2ccccc21 [Dosulepin hydrochloride],67.3
13,CC(C)(Oc1ccc(Cl)cc1)C(=O)O [Clofibric acid],86.1
14,Cn1c(=O)c2c(ncn2CC(=O)O)n(C)c1=O [Acefylline],88.9
15,Cc1cc(C(=O)NNCc2ccccc2)no1 [Isocarboxazid],95.2
16,CO[C@H]1C[C@H](O[C@H]2[C@H](C)[C@@H](O[C@@H]3O[C@H](C)C[C@H](N(C)C)[C@H]3OC(C)=O)[C@@H](C)C[C@@]3(CO3)C(=O)[C@H](C)[C@@H](OC(C)=O)[C@@H](C)[C@@H](C)OC(=O)[C@@H]2C)O[C@@H](C)[C@@H]1OC(C)=O [Troleandomycin],98
17,COc1ccc(-c2ccc(=N)n(CCCC(=O)O)n2)cc1 [Gabazine bromide],101
18,CN1CCN(C2=Nc3cc(Cl)ccc3Nc3ccccc32)CC1 [Clozapine],98.8
19,C[C@@H]1NC(=O)NC1=O [Methylhydantoin-5-(L)],99.4
20,Cc1ccc(-c2ncc(Cl)cc2-c2ccc(S(C)(=O)=O)cc2)cn1 [Etoricoxib],103
21,CC1CCc2c(N3CCC(O)CC3)c(F)cc3c(=O)c(C(=O)O)cn1c23 (stereo not drawn) [Nadifloxacin],87
22,Clc1ccc(COC(Cn2ccnc2)c2ccc(Cl)cc2Cl)c(Cl)c1 (stereo not drawn) [Miconazole],53.5
23,Cc1cc(=O)n(-c2ccccc2)n1C [Antipyrine],93.4
24,NC12CC3CC(CC(C3)C1)C2 [Adamantamine fumarate],110
25,O=c1cc(-c2ccc(O)c(O)c2)oc2cc(O)cc(O)c12 [Luteolin],68.3

row,SMILES,HCT116-GFP viability [%]
1,CC(C)(C(=O)c1cccnc1)c1cccnc1 [Metyrapone],87.7
2,CC(=O)N(O)CCCCCNC(=O)CCC(=O)N(O)CCCCCNC(=O)CCC(=O)N(O)CCCCCN [Deferoxamine mesylate],16.4
3,"CC(C)(S)C(N)C(=O)O (racemic) [D,L-Penicillamine]",90.7
4,CCN[C@H]1C[C@H](C)S(=O)(=O)c2sc(S(N)(=O)=O)cc21 [Dorzolamide hydrochloride],91.2
5,O=C1Cc2cc(CCN3CCN(c4nsc5ccccc45)CC3)c(Cl)cc2N1 [Ziprasidone  Hydrochloride],68.5
6,CC(C)/N=c1\cc2n(-c3ccc(Cl)cc3)c3ccccc3nc-2cc1Nc1ccc(Cl)cc1 [Clofazimine],4.05
7,C[C@@H]1[C@H](O)[C@@H](C)/C=C/C=C/C=C/C=C/C=C/C=C/C=C/[C@H](O[C@@H]2O[C@H](C)[C@@H](O)[C@H](N)[C@@H]2O)C[C@@H]2O[C@](O)(C[C@@H](O)C[C@@H](O)[C@H](O)CC[C@@H](O)C[C@@H](O)CC(=O)O[C@H]1C)C[C@H](O)[C@H]2C(=O)O [Amphotericin B],129
8,CO[C@@]1(NC(=O)CSCC#N)C(=O)N2C(C(=O)O)=C(CSc3nnnn3C)CS[C@@H]21 [Cefmetazole sodium salt],110
9,CC(C)NC[C@H](O)COc1ccc(CC(N)=O)cc1 [(S)-(-)-Atenolol],97.1
10,CCOC(=O)C(C)(C)Oc1ccc(Cl)cc1 [Clofibrate],90.8
11,CN1CCc2cccc3c2[C@H]1Cc1ccc(O)c(O)c1-3 [R(-) Apomorphine hydrochloride hemihydrate],6.74
12,CCC(NC(C)C)C(O)c1ccc(O)c(O)c1 (stereo not drawn) [Isoetharine mesylate salt],7.17
13,CCC(Cc1c(I)cc(I)c(N)c1I)C(=O)O (stereo not drawn) [Iopanoic acid],112
14,O=C1NCN(c2ccccc2)C12CCN(CCCC(c1ccc(F)cc1)c1ccc(F)cc1)CC2 [Fluspirilen],46.8
15,CC(C)(C)C(=O)OCOC(=O)[C@@H]1N2C(=O)[C@@H](NC(=O)[C@H](N)c3ccccc3)[C@H]2SC1(C)C [Pivampicillin],91.5
16,N=C(N)NC(=O)c1nc(Cl)c(N)nc1N [Amiloride hydrochloride dihydrate],103
17,CCCCOC(=O)c1ccc(N)cc1 [Butamben],101
18,CCOc1ccccc1OCC1CNCCO1 (stereo not drawn) [Viloxazine hydrochloride],99.2
19,CC[C@H]1OC(=O)[C@H](C)[C@@H](O[C@H]2C[C@@](C)(OC)[C@@H](O)[C@H](C)O2)[C@H](C)[C@@H](O[C@@H]2O[C@H](C)C[C@H](N(C)C)[C@H]2O)[C@](C)(OC)C[C@@H](C)C(=O)[C@H](C)[C@@H](O)[C@]1(C)O [Clarithromycin],86.6
20,N[C@@H]1CCCCN(c2c(F)cc3c(=O)c(C(=O)O)cn(C4CC4)c3c2Cl)C1 [Besifloxacin hydrochloride],98
21,CCCCC1=NC2(CCCC2)C(=O)N1Cc1ccc(-c2ccccc2-c2nnn[nH]2)cc1 [Irbesartan],88.8
22,CNS(=O)(=O)Cc1ccc2[nH]cc(CCN(C)C)c2c1 [Sumatriptan succinate],95.2
23,CN[C@H](CC(C)C)C(=O)N[C@H]1C(=O)N[C@@H](CC(N)=O)C(=O)N[C@H]2C(=O)N[C@H]3C(=O)N[C@H](C(=O)N[C@H](C(=O)O)c4cc(O)cc(O)c4-c4cc3ccc4O)[C@H](O)c3ccc(c(Cl)c3)Oc3cc2cc(c3O[C@@H]2O[C@H](CO)[C@@H](O)[C@H](O)[C@H]2O[C@H]2C[C@](C)(N)[C@H](O)[C@H](C)O2)Oc2ccc(cc2Cl)[C@H]1O [Vancomycin hydrochloride],95.4
24,NS(=O)(=O)c1cc2c(cc1Cl)N=CNS2(=O)=O [Chlorothiazide],91.8
25,CCOc1ccc2c(c1)C(C)=CC(C)(C)N2 [Ethoxyquin],72.5

row,SMILES,HCT116-GFP viability [%]
1,CCOC(=O)[C@H](CCc1ccccc1)N[C@@H](C)C(=O)N1[C@H](C(=O)O)C[C@@H]2CCC[C@@H]21 [Ramipril],90.8
2,NC(=O)c1ncn([C@@H]2O[C@H](CO)[C@@H](O)[C@H]2O)n1 [Ribavirin],74.7
3,CC(C)COCC(CN(Cc1ccccc1)c1ccccc1)N1CCCC1 (stereo not drawn) [Bepridil hydrochloride],53.8
4,NS(=O)(=O)c1cc(C(=O)O)c(NCc2ccco2)cc1Cl [Furosemide],86.4
5,COc1cc(C(=O)NS(=O)(=O)c2ccccc2C)ccc1Cc1cn(C)c2ccc(NC(=O)OC3CCCC3)cc12 [Zafirlukast],88.8
6,Cc1cc(C2CCCCC2)n(O)c(=O)c1 [Ciclopirox ethanolamine],11.7
7,Cc1cccc(C)c1NC(=O)C1CCCCN1C (stereo not drawn) [Mepivacaine hydrochloride],76.7
8,Cc1ncc([N+](=O)[O-])n1CC(O)CCl (stereo not drawn) [Ornidazole],91
9,CN1C(C(=O)Nc2ccccn2)=C(O)c2sccc2S1(=O)=O [Tenoxicam],99.3
10,C[C@]12CC[C@H]3C(=CCc4cc(O)ccc43)[C@@H]1CCC2=O [Equilin],104
11,C=C[C@H]1CN2CC[C@H]1C[C@@H]2[C@@H](O)c1ccnc2ccc(OC)cc12 [Quinidine hydrochloride monohydrate],109
12,CS(=O)(=O)c1ccc(C2=C(c3ccccc3)C(=O)OC2)cc1 [Rofecoxib],85.6
13,Cn1c(=O)c2[nH]cnc2n(C)c1=O [Aminophylline],91.5
14,Cc1[nH]c(=O)c(C#N)cc1-c1ccncc1 [Milrinone],107
15,CN(C)CCC=C1c2ccccc2CCc2ccccc21 [Amitryptiline hydrochloride],72.5
16,Cc1ccnc2c1NC(=O)c1cccnc1N2C1CC1 [Nevirapine],75.5
17,CCN(CC)CCOC(=O)C(c1ccccc1)C1CCCCC1 (stereo not drawn) [Drofenine hydrochloride],100
18,COCC1=C(C(=O)OC(C)OC(=O)OC(C)C)N2C(=O)[C@@H](NC(=O)/C(=N\OC)c3csc(N)n3)[C@H]2SC1 (stereo partly drawn) [Cefpodoxime proxetil],86.9
19,COc1cc(Cc2cnc(N)nc2N)cc(OC)c1OC [Trimethoprim],89.3
20,O=C(CCCN1CCC(O)(c2ccc(Br)cc2)CC1)c1ccc(F)cc1 [Bromperidol],67.8
21,CC(=O)c1ccc2c(c1)N(CCCN1CCC(CCO)CC1)c1ccccc1S2 [Piperacetazine],86
22,CO[C@@]1(NC(=O)Cc2cccs2)C(=O)N2C(C(=O)O)=C(COC(N)=O)CS[C@@H]21 [Cefoxitin sodium salt],103
23,CCCCC(CC)CN1CN(CC(CC)CCCC)CC(C)(N)C1 (stereo not drawn) [Hexetidine],93.9

# From the supplement of paper PMC9938546
